Key:
[1] = biological target: human α-thrombin (Diapharma) (human); assay: thrombin inhibition kinetics
Procedure: (§1) To characterize the efficacy of the expressed sulfo-hirudin as an anticoagulant, the kinetics of thrombin inhibition were determined using a fluorogenic enzyme assay based on the single progress curve method previously reported in the literature (Cha, “Tight-binding inhibitors—III. A new approach for the determination of competition between tight-binding inhibitors and substrates—inhibition of adenosine deaminase by coformycin,” Biochem Pharmacol 25:2695-2702 (1976); Komatsu et al., “CX-397, a novel recombinant hirudin analog having a hybrid sequence of hirudin variants-1 and -3,” Biochem Biophys Res Commun 196:773-779 (1993)). In this assay, 100 pM of either sulfo-hirudin or desulfo-hirudin was mixed with 50 μM fluorogenic substrate to which human α-thrombin was added to initiate the reaction.
The exact concentrations of hirudin and sulfo-hirudin were determined by titration against thrombin in a concentration range where 1:1 binding could be assumed. […] These thrombin inhibition kinetic constants derived from non-linear fitting of progress curves averaged over at least 3 readings with standard deviations reported are shown in the table below.

[2] = biological target: human α-thrombin (Diapharma) (human); assay: thrombin inhibition, fluorogenic enzyme assay, single progress curve method; koff is the product of kon and Ki
Procedure: (§2) FIGS. 3A and 3B provide representative plots of thrombin inhibition with their respective fitted progress curves superimposed on the raw data points. Enzyme assays were conducted with 50 μM fluorogenic substrate, 40 pM human α-thrombin, and 100 pM expressed hirudin in a Tris-HCl saline buffer supplemented with polyethylene glycol 6000 and HSA.
as §1
(§3) The exact concentrations of hirudin and sulfo-hirudin were determined by titration against thrombin in a concentration range where 1:1 binding could be assumed. […]

[3] = biological target: human α-thrombin (Diapharma) (human); assay: thrombin inhibition, fluorogenic enzyme assay, single progress curve method (40 pM α-thrombin, 100 pM hirudin)
Procedure: as §2, §1, §3

B1: sulfo-hirudin ([Leu^1, Thr^2]-hirudin with sulfotyrosine at position 63, expressed in E. coli from pBAD-HirudinTAG) (other)
chain: LTYTDCTESGQNLCLCEGSNVCGQGNKCILGSDGEKNQCVTGEGTPKPQSHNDGDFEEIPEEYLQ
modifications: sulfotyrosine at position 63
notes: mature; Tyr63 is replaced by the unnatural amino acid sulfotyrosine; also called sulfated hirudin; genetically encoded sulfo-hirudin
B1 was tested, and the “fold higher affinity than desulfo-hirudin” value [1] was > 10 fold and the koff [2] was 2.2e-06 s⁻¹.

B2: [Leu^1, Thr^2]-63-desulfo-hirudin (Lepirudin (Refludan)) (other)
chain: LTYTDCTESGQNLCLCEGSNVCGQGNKCILGSDGEKNQCVTGEGTPKPQSHNDGDFEEIPEEYLQ
notes: mature; Expressed in E. coli from pBAD-Hirudin
In the case of B2, the Ki [3] is reported as 0.307 pM, the kon [3] is reported as 3.8e+07 M⁻¹ s⁻¹ and the koff [2] is reported as 1.18e-05 s⁻¹.

From patent US20090286279A1 (Scripps Research, published 2009)
